Reference: article PMC7430654
These are yes or no findings as the source states them, for the method shown. In cells and extracts the contact can be indirect. Some results given as binding are weak or reduced against the parent protein; the word gives no strength. For part of these data: Where a sequence is shown, tags or fusion partners need not be part of it.

By UniProt entry, the sequences of proteins in these tests, tags left out.
UniProt Q9WTL8: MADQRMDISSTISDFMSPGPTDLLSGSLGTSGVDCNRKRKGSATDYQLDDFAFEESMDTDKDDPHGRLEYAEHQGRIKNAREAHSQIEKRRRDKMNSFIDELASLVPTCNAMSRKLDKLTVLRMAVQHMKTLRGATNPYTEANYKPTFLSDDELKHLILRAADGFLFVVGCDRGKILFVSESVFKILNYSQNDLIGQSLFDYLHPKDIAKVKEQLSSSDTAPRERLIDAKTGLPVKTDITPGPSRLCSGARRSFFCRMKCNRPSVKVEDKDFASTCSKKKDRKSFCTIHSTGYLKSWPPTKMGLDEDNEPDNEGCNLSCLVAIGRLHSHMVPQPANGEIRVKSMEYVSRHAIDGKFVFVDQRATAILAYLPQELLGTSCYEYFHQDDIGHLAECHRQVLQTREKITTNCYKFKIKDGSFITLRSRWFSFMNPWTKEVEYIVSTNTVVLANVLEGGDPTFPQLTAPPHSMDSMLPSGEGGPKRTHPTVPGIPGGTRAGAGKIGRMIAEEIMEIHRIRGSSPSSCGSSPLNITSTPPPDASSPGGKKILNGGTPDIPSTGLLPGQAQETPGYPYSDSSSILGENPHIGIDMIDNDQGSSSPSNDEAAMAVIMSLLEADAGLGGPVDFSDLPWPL
UniProt O00327: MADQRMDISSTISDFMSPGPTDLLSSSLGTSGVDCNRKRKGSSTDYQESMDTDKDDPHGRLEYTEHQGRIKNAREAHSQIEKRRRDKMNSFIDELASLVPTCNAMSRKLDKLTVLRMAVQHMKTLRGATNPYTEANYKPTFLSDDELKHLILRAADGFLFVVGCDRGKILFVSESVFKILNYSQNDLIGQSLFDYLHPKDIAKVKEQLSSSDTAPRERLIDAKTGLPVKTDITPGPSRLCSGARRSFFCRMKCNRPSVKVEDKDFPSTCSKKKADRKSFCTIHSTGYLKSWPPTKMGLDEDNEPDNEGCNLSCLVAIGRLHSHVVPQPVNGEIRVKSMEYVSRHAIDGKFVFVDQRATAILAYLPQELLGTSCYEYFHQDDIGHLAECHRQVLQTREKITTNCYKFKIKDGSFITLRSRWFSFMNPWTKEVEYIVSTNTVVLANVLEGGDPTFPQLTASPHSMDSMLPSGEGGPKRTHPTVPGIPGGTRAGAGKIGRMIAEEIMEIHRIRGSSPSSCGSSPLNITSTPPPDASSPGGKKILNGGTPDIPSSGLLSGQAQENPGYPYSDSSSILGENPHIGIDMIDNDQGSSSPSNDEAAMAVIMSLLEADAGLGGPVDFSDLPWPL

Key:
[1] = target: T1, FLAG-tagged necdin fragment, amino acids 190-325 (UniProt P25233); test: co-IP; two tagged proteins co-expressed in HEK293T cells; lysis buffer 150 mM NaCl, 1% NP-40, 2 mM EDTA, 50 mM Tris pH 8.0; antibody to the tag overnight at 4 C, protein G agarose, immunoblot
T1 sequence: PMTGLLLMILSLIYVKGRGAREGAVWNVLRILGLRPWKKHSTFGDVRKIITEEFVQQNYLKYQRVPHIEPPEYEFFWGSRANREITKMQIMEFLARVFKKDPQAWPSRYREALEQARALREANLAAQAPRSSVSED

[2] = target: T2, FLAG-tagged necdin fragment, amino acids 1-115 (UniProt P25233); test: as above
T2 sequence: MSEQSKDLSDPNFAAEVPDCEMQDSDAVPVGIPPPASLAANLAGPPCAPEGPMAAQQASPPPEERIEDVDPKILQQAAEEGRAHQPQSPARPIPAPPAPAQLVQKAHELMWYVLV

[3] = target: T3, FLAG-tagged necdin fragment, amino acids 116-170 (UniProt P25233); test: as above
T3 sequence: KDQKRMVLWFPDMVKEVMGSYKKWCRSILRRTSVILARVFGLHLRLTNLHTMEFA

[4] = target: T4, FLAG-tagged necdin fragment, amino acids 1-170 (UniProt P25233); test: as above
T4 sequence: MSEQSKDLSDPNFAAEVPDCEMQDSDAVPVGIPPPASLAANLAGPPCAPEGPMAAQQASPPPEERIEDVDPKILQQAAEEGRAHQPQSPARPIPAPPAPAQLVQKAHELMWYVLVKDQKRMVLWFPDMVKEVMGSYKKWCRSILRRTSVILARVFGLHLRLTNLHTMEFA

[5] = target: T5, FLAG-tagged necdin, full length (UniProt P25233); test: as above
T5 sequence: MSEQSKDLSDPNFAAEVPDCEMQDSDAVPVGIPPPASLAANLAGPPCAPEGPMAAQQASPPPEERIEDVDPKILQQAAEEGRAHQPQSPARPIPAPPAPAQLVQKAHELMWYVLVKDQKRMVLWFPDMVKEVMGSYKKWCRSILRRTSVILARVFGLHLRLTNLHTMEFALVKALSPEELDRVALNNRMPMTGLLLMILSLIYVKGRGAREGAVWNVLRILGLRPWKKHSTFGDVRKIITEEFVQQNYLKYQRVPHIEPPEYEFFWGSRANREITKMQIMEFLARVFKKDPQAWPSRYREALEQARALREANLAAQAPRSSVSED

[6] = target: T6, necdin, endogenous in U2OS cells (human (endogenous in U2OS)) (UniProt Q99608); test: co-IP; endogenous proteins in U2OS cell lysate; antibody against necdin or SGT1 or control IgG, protein G agarose, immunoblot
T6 sequence: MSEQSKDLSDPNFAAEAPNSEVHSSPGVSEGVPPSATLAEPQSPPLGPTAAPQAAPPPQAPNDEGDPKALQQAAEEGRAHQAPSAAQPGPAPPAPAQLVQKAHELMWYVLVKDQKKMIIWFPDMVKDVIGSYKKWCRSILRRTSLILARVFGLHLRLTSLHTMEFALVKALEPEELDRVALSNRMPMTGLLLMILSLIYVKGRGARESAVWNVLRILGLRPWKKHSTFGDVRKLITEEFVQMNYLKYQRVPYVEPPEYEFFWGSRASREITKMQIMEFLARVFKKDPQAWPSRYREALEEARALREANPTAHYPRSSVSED

binding [1] | binding [2] | binding [3] | binding [4] | binding [5] | binding [6] | Substance
no binding | no binding | binds | binds | binds | – | HA-tagged BMAL1 (from UniProt Q9WTL8 1-632)
– | – | – | – | – | binds | BMAL1, endogenous in U2OS cells (from UniProt O00327 1-626)
